This note sets out measurements from PMC4336329 (PLoS ONE, 2015).

The campaign covered roughly 310,000 compounds. About 2,200 (0.71%) showed an effect of 50% or more. The effect is printed as a negative number. The list shows a part of the results.

This test deals with human ether-à-go-go-related gene (hERG) potassium channel (human, UniProt Q12809). Nature of the test: primary screen, population patch clamp on CHO cells stably expressing hERG.
human ether-à-go-go-related gene (hERG) potassium channel, sequence (Q12809 whole entry, looked up): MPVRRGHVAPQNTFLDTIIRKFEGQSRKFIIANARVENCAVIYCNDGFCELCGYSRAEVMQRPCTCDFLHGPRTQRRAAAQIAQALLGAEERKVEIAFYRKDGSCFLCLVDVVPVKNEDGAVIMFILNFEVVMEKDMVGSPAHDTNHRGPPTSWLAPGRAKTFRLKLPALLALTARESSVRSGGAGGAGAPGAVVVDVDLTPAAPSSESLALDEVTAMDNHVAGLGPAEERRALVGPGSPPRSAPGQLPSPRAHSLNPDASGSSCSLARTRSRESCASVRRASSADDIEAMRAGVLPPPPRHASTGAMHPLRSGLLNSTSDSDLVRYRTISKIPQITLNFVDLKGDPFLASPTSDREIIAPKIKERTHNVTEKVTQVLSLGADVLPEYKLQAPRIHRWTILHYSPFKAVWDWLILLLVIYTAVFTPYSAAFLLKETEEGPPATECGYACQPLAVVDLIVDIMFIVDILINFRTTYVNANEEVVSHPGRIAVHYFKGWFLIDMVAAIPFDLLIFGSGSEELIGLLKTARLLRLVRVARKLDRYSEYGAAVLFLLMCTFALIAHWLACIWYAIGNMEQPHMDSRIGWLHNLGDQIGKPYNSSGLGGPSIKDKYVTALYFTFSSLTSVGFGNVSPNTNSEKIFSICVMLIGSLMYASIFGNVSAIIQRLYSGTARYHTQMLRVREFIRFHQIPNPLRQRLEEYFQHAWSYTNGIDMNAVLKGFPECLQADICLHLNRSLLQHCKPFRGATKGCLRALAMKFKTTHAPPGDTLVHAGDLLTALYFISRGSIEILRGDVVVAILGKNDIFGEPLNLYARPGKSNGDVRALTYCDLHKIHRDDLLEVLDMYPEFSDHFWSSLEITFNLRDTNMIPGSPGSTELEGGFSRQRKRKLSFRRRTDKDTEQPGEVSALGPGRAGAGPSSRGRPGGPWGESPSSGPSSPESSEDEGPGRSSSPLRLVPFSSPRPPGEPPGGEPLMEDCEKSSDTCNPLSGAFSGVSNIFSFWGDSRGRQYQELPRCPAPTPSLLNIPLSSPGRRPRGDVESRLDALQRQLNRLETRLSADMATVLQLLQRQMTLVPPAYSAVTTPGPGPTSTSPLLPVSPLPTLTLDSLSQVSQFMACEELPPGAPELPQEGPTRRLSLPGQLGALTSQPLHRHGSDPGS
With `CCC(C)n1c(SCC(=O)NC2CCCC2)nc2ccccc2c1=O` (stereo not shown), the “hERG current change (%, negative = inhibition) at 1uM” value stood at 8.73%. Next, `O=C(c1cc(-c2ccccc2)nn1CC1CC(c2cccnc2)=NO1)N1CCOCC1` (stereo not shown): 12.2%; `CC(C)C[C@H](NC(=O)N1CCN(c2ccccc2)CC1)C(=O)O`: 7.7%. The value for `NS(=O)(=O)c1cccc(NC(=S)NCc2ccc3c(c2)OCO3)c1` was 7.74%; that for `CCC(=O)N1c2ccc(S(=O)(=O)NCCc3ccccc3)cc2CC1C` (stereo not shown) was 13.6%; that for `O=C(CCn1cccc1)Nc1ccccc1F` was 14.3%. Consider `CCCCNC(=O)CSc1nnc(-c2ccc(S(=O)(=O)N3CCCC3)cc2)n1C`, for which the “hERG current change (%, negative = inhibition) at 1uM” value is 4.16%.

`O=C(Nc1cccc(Cl)c1N1CCOCC1)c1cc([N+](=O)[O-])ccc1N1CCOCC1`: the “hERG current change (%, negative = inhibition) at 1uM” value amounted to 12.8%. The value for `CC(C)(C)NC(=O)C(OC(=O)c1cccs1)c1ccc(F)cc1` (stereo not shown) was 11.6%.

With `COc1ccc(COC(=O)Nc2c(SC)nsc2SC)cc1`, the “hERG current change (%, negative = inhibition) at 1uM” value amounted to 10.7%. For `O=C1CSc2ccc(S(=O)(=O)N3CCN(c4ccccc4F)CC3)cc2N1`, the “hERG current change (%, negative = inhibition) at 1uM” value was determined as 7.79%.

Regarding `CC(C)N1CCC(=NNc2ccc(S(=O)(=O)N3CCOCC3)cc2[N+](=O)[O-])CC1`, the “hERG current change (%, negative = inhibition) at 1uM” value is 1.63%. Next, `CCc1nnc(NC(=O)CCC(=O)Nc2ccccc2)s1`: 17.2%. Next, `O=C(Cc1ccc(NC2=NC3CS(=O)(=O)CC3S2)cc1)Nc1ccc(F)cc1` (stereo not shown): 2.4%; `c1ccc(-c2ccccc2OCCn2cncn2)cc1`: 5.88%. Next, `Cc1cc(C(F)(F)F)nn1Cc1n[nH]c(=S)n1-c1cccc(Cl)c1`: 0.656%. `CSCC[C@H](NC(=O)COc1cc2c(c3oc(=O)c(C)c(C)c13)CCC(C)(C)O2)C(=O)O`: the “hERG current change (%, negative = inhibition) at 1uM” value is listed as 10%.

`O=C(c1ccc(COc2c(F)c(F)cc(F)c2F)o1)N1CCN(c2ccccc2)CC1`: the “hERG current change (%, negative = inhibition) at 1uM” value was found to be 1.5%. The value for `O=C(O)c1[nH]nc2c1COc1ccccc1-2` was 9.01%; that for `CCOc1ccc2ccccc2c1/C=N\NC(=O)OC` was 15.1%. With `COc1cc(-c2nc3ccccn3c2/N=C/c2ccccc2)ccc1O`, the “hERG current change (%, negative = inhibition) at 1uM” value came to 8.07%. Regarding `COc1cc(NS(=O)(=O)c2ccc(NC(=O)/C(=C\c3ccccc3OC)NC(=O)c3ccccc3)cc2)nc(OC)n1`, the “hERG current change (%, negative = inhibition) at 1uM” value stood at 20.8%.

For the molecule `N[C@@H](Cc1ccccc1)C(=O)N1CCC(C(=O)N[C@@H](Cc2c[nH]c3ccccc23)C(=O)O)CC1`, the “hERG current change (%, negative = inhibition) at 1uM” value is reported as 15.3%. The value for `Cc1ccc(Nc2nc(N)c([N+](=O)[O-])c(NCCO)n2)cc1` was 16.5%. The value for `COC(=O)C1CCN(C(=O)NC2CC(=O)N(c3ccc4c(c3)OCCO4)C2)CC1` (stereo not shown) was -5.3%; that for `Nc1nc(SCc2ccc3c(c2)OCCO3)n[nH]1` was 17.7%. Next, `CC12CN3CC(C)(CN(C1)C3c1ccccc1)C2O` (stereo not shown): 9.98%; `O=C(CSc1nc2ccccc2s1)N1c2ccccc2Sc2ccccc21`: 5.24%. Take `COC(=O)Cn1c(SCc2ccccc2)nc2ccccc21`: the “hERG current change (%, negative = inhibition) at 1uM” value is on record as -1.05%. Next, `CC(C)C(=O)Nc1cccc(NC(=O)c2ccc(Cl)cc2Cl)c1`: 3.68%; `O=C1CSc2ccc(C(=O)NCC(c3ccco3)N3CCCCC3)cc2N1` (stereo not shown): 6.34%. As to `Cc1ccc(C(=O)N/N=C/C=C/c2ccccc2)o1`, the “hERG current change (%, negative = inhibition) at 1uM” value was -2.97%. The value for `S=C(Nc1ccc2nc(-c3ccccn3)c(-c3ccccn3)nc2c1)N1CCCCCC1` was -7.55%. Turning to `COC(=O)c1sccc1NC(=O)Nc1cccc(OC)c1`, the “hERG current change (%, negative = inhibition) at 1uM” value was 14.8%. For `Cn1c(-c2ccc(Cl)cc2)cnc1NCc1cc2c(cc1[N+](=O)[O-])OCO2.O=C(O)C(=O)O`, the “hERG current change (%, negative = inhibition) at 1uM” value is recorded as -23%. Regarding `Cc1ccc(NC(=O)c2ccc3c(SCC(=O)O)c4c(nc3c2)CCCC4)c(Br)c1`, the “hERG current change (%, negative = inhibition) at 1uM” value is recorded as -8.14%. The value for `O=c1oc2ccccc2cc1NCc1ccccc1O` was 8%; that for `O=C(NNc1cc(Cl)ccc1Cl)C1CCC1` was 1.17%; that for `CC(C)c1ccc(C(=O)OC2CCOC2=O)cc1` (stereo not shown) was 9.64%. The value for `CCOc1cc(CNc2ccc(S(N)(=O)=O)cc2)cc(Cl)c1OC` was -0.769%. Next, `COc1cccc(Cn2nnc3c(=O)[nH]c(C4CCCN(C(=O)c5ccccc5Cl)C4)nc32)c1` (stereo not shown): 9.45%.

For the molecule `O=C(CSc1ccccc1)N/N=C/c1ccccc1O`, the “hERG current change (%, negative = inhibition) at 1uM” value is on record as 8.42%. Next, `CCN(CC)S(=O)(=O)c1cc(C)ccc1SC`: 23.5%.

`COc1ccccc1NC(=O)Nc1ccccc1Br`: the “hERG current change (%, negative = inhibition) at 1uM” value amounted to 11.1%. The value for `CC(=O)N1CCN(c2ccccc2NC(=O)COc2ccc(Cl)cc2Cl)CC1` was -0.105%. Next, `Cc1ccc(C(=O)C2=C(O)C(=O)N(Cc3ccco3)C2c2ccc(N(C)C)cc2)o1` (stereo not shown): 6.35%; `COC(=O)C1=C(c2ccccc2)C[C@@H]2CC[C@H]1N2C(=O)NCc1ccccc1`: 16.9%. Take `CCn1c(-c2ccc(F)cc2)n[nH]c1=S`: the “hERG current change (%, negative = inhibition) at 1uM” value came to 9.78%. The value for `CCOc1ccccc1CNC(=O)C1CCCN(c2ncnc3c2nc2n3CCCCC2)C1` (stereo not shown) was -3.85%; that for `Cc1ccc(N2C(=O)CCC2(C#N)c2ccccc2)cc1` (stereo not shown) was 13.8%. As for `N#Cc1c(NC(=O)/C=C/c2ccco2)sc2c1CCCC2`, the “hERG current change (%, negative = inhibition) at 1uM” value is 2.63%.

`COc1ccccc1-n1c(SCC(=O)Nc2cccc(C(=O)O)c2)nnc1-c1ccccc1C`: the “hERG current change (%, negative = inhibition) at 1uM” value is 9.95%. Next, `CCOC(=O)c1cnc(SCc2nc(N)nc(Nc3ccc(C)cc3)n2)nc1N`: -1.84%; `CCOc1cc(C)nc(N2CCC(C(=O)Nc3ccccc3OCC)CC2)n1`: 11%; `C=CCN(C(=O)CSc1nc2[nH]ncc2c(=O)n1-c1ccccc1OC)c1ccccc1`: 3.01%. Next, `COc1ccccc1C(C#N)c1cccc(Cl)n1` (stereo not shown): 18.6%; `CN(C(=S)NC(=O)c1ccc(F)cc1)C1CCCCC1`: 14.5%.

`Cc1nn(Cc2ccccc2Cl)c(C)c1NC(=O)c1ccn(C)n1`: the “hERG current change (%, negative = inhibition) at 1uM” value was 13.7%. The value for `Nc1ccc(-n2ccnc2)cc1` was 6.25%; that for `CCCC(=O)NC(=S)Nc1ccc(S(=O)(=O)N2CCc3ccccc32)cc1` was 14.7%.

For the molecule `O=C(COc1ccccc1[N+](=O)[O-])Nc1ccc2c(c1)CCC2`, the “hERG current change (%, negative = inhibition) at 1uM” value was 9.54%. The value for `COc1c(O)ccc(/C=N/NC(=O)c2ccc3c(c2)OCCO3)c1[N+](=O)[O-]` was 11.4%; that for `CCCCCCC(=O)Oc1ccc(N2C(=O)CCC2=O)cc1` was 0.113%; that for `CCCOc1ccc(C(=O)Nc2ccc3c(c2)OCCO3)cc1` was 9.14%.

`Cc1cc(C)c2sc(N(CCCN(C)C)C(=O)CN3C(=O)c4ccccc4C3=O)nc2c1.Cl`: the “hERG current change (%, negative = inhibition) at 1uM” value is 12.7%. Consider `CCOc1ccc(N2C(=O)CC(SC(=NC)Nc3ccc4c(c3)OCO4)C2=O)cc1` (stereo not shown), for which the “hERG current change (%, negative = inhibition) at 1uM” value amounted to 13.6%. Next, `Brc1ccc(-c2nnc(SCCC3OCCCO3)o2)cc1`: 9.14%; `O=C(Nc1ccc(Br)cc1F)C1CCN(c2nnc(-n3cccc3)s2)CC1`: 7.44%. On to `Cc1cccc(C(=O)Nc2cccc(C(=O)N/N=C/c3cccc(C)n3)c2)c1`, for which the “hERG current change (%, negative = inhibition) at 1uM” value is listed as 18.2%.

Turning to `C=CCNc1oc(Cc2cccc3ccccc23)nc1C#N`, the “hERG current change (%, negative = inhibition) at 1uM” value stood at 5.92%. For the molecule `S=C(NCC1CCCO1)c1ccc(Br)cc1` (stereo not shown), the “hERG current change (%, negative = inhibition) at 1uM” value worked out at 11.9%.

On to `Cc1csc(CNC(=O)c2cc(COc3c(C)cccc3C)on2)n1`, for which the “hERG current change (%, negative = inhibition) at 1uM” value is given as 13.5%. The value for `COc1ccccc1NC(=O)Nc1ccnn1C1CCN(C(=O)c2ccccn2)CC1` was 10.4%; that for `OCCNc1cnc2ccccc2n1` was 9.55%; that for `Cn1c2c(c3ccccc31)CCSC2=O` was -2.86%.

For the molecule `Cc1ccccc1C(=O)NC1CCCN(Cc2ccccc2F)C1` (stereo not shown), the “hERG current change (%, negative = inhibition) at 1uM” value is given as 1.39%. The value for `Cc1oc(C(C)(C)C)cc1C(=O)NCc1ccc2c(c1)OCO2` was 14.1%; that for `COc1ccc(Cl)cc1/C=C(\C#N)C(N)=O` was 20%. The value for `Cc1ccc(S(=O)(=O)N2CCOCC2)cc1NC(=O)COc1ccc(C(=O)c2ccccc2)cc1` was -15%.

As for `Cc1ccc(-c2[nH]nc3c2C(C)C(C#N)=C(N)O3)cc1` (stereo not shown), the “hERG current change (%, negative = inhibition) at 1uM” value worked out at 15.4%. Next, `CC(=O)c1ccc(N2CCN(S(=O)(=O)c3c(C)[nH]c(=O)[nH]c3=O)CC2)cc1`: 9.72%; `CCCOc1ccc(C2=CSC3=NCCN23)cc1Cl`: -23.5%. Next, `O=C(c1ccco1)N1N=C(c2cccs2)CC1c1ccc(F)cc1` (stereo not shown): 0.0766%; `O=C(/C=C/c1ccccc1)NC1CC2CCC1C2` (stereo not shown): 8.7%. For `Cc1c(NC(=O)c2ccccc2F)c(=O)n(-c2ccccc2)n1C`, the “hERG current change (%, negative = inhibition) at 1uM” value is reported as 12.2%.

In the case of `COc1cccc(CC(=O)NN2C(=O)NC3(CCCCC3)C2=O)c1`, the “hERG current change (%, negative = inhibition) at 1uM” value is recorded as 10.3%. `Cc1ccccc1NS(=O)(=O)c1ccc(NC(=O)c2nc3ncccn3n2)cc1`: the “hERG current change (%, negative = inhibition) at 1uM” value worked out at 7.01%. On to `COc1cccc(N2C(=O)C3CCCN3C2c2ccc(F)cc2)c1` (stereo not shown), for which the “hERG current change (%, negative = inhibition) at 1uM” value was determined as 0.387%. Next, `CC(=O)NC1(C(F)(F)F)C(=O)NC(C)=C1C#N` (stereo not shown): 6.12%. Turning to `CC(=O)C1=C(O)C(=O)N(C)C1c1ccccc1F` (stereo not shown), the “hERG current change (%, negative = inhibition) at 1uM” value is on record as 19.4%. Next, `Cc1ccccc1NC(=O)COC(=O)CCc1c[nH]c2ccccc12`: 4.35%.
